Reference: article PMC10492700

Target: His64 (UniProt position 64, ILNNGHAFNVE)
Assay: NMR
Details: 50 mM MES, MOPS, HEPES, TRIS/HCl or CAPS, zinc-loaded, folded
[1] = 308 K, not stated (50 mM buffer, no added salt mentioned), inhibitor-free, inward conformation (pKa,1)
[2] = 308 K, not stated (50 mM buffer, no added salt mentioned), inhibitor-free, outward conformation (pKa,2)

Substance | pKa (308 K, not stated (50 mM buffer), acetazolamide bound (10 mM inhibitor, displaces the zinc-bound water), inward conformation (pKa,1)) | pKa (308 K, not stated (50 mM buffer), acetazolamide bound (10 mM inhibitor, displaces the zinc-bound water), outward conformation (pKa,2)) | pKa (308 K, not stated (50 mM buffer), inhibitor-free, Hill model fit) | pKa (308 K, not stated (50 mM buffer), inhibitor-free, higher macroscopic pKa, two-pKa fit) | pKa (308 K, not stated (50 mM buffer), inhibitor-free, lower macroscopic pKa, two-pKa fit) | pKa (308 K, not stated (50 mM buffer), inhibitor-free, single pKa model fit) | pKa [1] | pKa [2] | pKa (313 K (Table 1), Methods and Fig. S2 say 314 K, not stated (50 mM buffer), inhibitor-free, inward conformation (pKa,1)) | pKa (313 K (Table 1), Methods and Fig. S2 say 314 K, not stated (50 mM buffer), inhibitor-free, outward conformation (pKa,2))
Carbonic anhydrase II (HCAII), wild type (Homo sapiens) | 6.27 ± 0.17 | 7.43 ± 0.12 | 7.12 ± 0.04 | 7.62 ± 0.07 | 6.20 ± 0.13 | 7.17 ± 0.03 | 6.25 ± 0.08 | 7.60 ± 0.06 | 6.05 ± 0.12 | 7.41 ± 0.07
Carbonic anhydrase II (HCAII) Y7F (Homo sapiens; Y7F) |  |  |  |  |  |  | 6.13 ± 0.13 | 7.54 ± 0.05 |  | 
Carbonic anhydrase II (HCAII) H4A (Homo sapiens; H4A) |  |  |  |  |  |  | 6.34 ± 0.12 | 7.53 ± 0.09 |  | 

Entries with a single value are a further part of the results.
